Experimental data as given in PubChem BioAssay AID1671194 (National Center for Advancing Translational Sciences (NCATS), 2021).
Hit rate of the full screen: of about 140,000 compounds, about 240 (0.17%) were called active. Inconclusive means that the source gave no clear call. Such entries were picked first, then a sample of the others. Calls follow the shape of the dose curve; as a rule, active = well fitted inhibition curve with a large enough effect; inconclusive = small, poorly fitted or top-dose-only effect; inactive = no such curve, though single readings can be large or run the other way. Potencies of inconclusive entries are doubtful fits and often do not repeat.

Assay: Primary qHTS assay for inhibitors of alpha-synuclein gene (SNCA) expression; also: nearly all actives have a fitted effect of over 45% in size
Conditions: HEK-293 SNCA-luciferase knock-in, luminescence, 24 h; series mostly up to 57.2 µM
Potency is read from the fitted curve at half-maximal effect; tags tell the direction and shape of the fitted curve.

Question: For `NC(=O)C1CCN(CC[C@H]2CN(C(=O)c3ccc(C(F)(F)F)cc3)CC[C@H]2CC(=O)O)CC1`, which Potency is on record?
Answer: Its Potency is inconclusive: 2.82 µM [inhibitor, partial curve, poor fit].

Question: For `CC1=C[C@@H](CN2CCCC2)[C@H](C(C)C)C[C@H]1Cc1nnc(-c2ccc([N+](=O)[O-])cc2)o1`, which Potency is on record?
Answer: Its Potency is “inactive”.

Question: Which Potency does the source give for `Cc1ccc(NC(=O)CN2C(=O)NC(c3ccc(Cl)cc3)C3=C2COC3=O)cc1Cl` (stereo unspecified) here?
Answer: Its Potency is inconclusive: 39.8 µM [inhibitor, single point].

Question: With `O=C(NCCN1CCCCC1)c1cccnc1N1CC2CC(C1)[C@H]1CCCC(=O)N1C2` (stereo partly specified) as the compound, how does the Potency read?
Answer: The Potency was inconclusive: 4.47 µM [inhibitor, full curve].

Question: With `O=C(Cc1cccc(Cl)c1)N1CCCC(C(=O)N2CCC(N3CCOCC3=O)CC2)C1` (stereo unspecified) as the compound, how does the Potency read?
Answer: Its Potency is inconclusive: 39.8 µM [inhibitor, single point].

Question: For `CC1(C)CCC2=C(O1)c1ccccc1C(=O)C2=O`, which Potency is on record?
Answer: The Potency was inconclusive: 42.9 µM [inhibitor, single point].

Question: With `O=C1CCN(C(=O)COc2ccccc2)CCCC(C(=O)NCc2ccccc2)CCN1` (stereo unspecified) as the compound, how does the Potency read?
Answer: Its Potency is “inactive”.

Question: For `Cc1nccn1CC(=O)N1C[C@@H](COCC2CC2)[C@H](c2ccncc2)C1`, which Potency is on record?
Answer: Its Potency is “inactive”.

Question: For `CCc1nc(Oc2cccc(F)c2)c2oc3ccccc3c2n1`, which Potency is on record?
Answer: Its Potency is “inactive”.

Question: For `Cc1ccc(CNC(=O)Cn2ccn3nc4c(c3c2=O)CCCCC4)cc1`, which Potency is on record?
Answer: Its Potency is “inactive”.

Question: For `O=C(N1CCC(n2cc(-c3nc(C4CC4)no3)nn2)C1)C1(c2ccccc2)CC1` (stereo unspecified), which Potency is on record?
Answer: Its Potency is inconclusive: 8.91 µM [inhibitor, single point].

Question: For `CC1=C(c2ccc(C)cc2)S(=O)(=O)NC1=NCCCN1CCN(c2ccc(F)cc2)CC1`, which Potency is on record?
Answer: Its Potency is inconclusive: 3.55 µM [inhibitor, full curve, poor fit].

Question: With `Cc1ccc(NC(=O)CSc2nc(-c3ccco3)cc(C(F)(F)F)n2)cc1` as the compound, how does the Potency read?
Answer: Its Potency is inconclusive: 1.12 µM [inhibitor, partial curve, poor fit].

Question: Which Potency does the source give for `CC(=O)N1CCCN(C(=O)c2ccc3c(c2)NC(C)(CCCCc2ccccc2)CO3)CC1` (stereo unspecified) here?
Answer: The Potency was “inactive”.

Question: For `O=C(CN1C(=O)NC(c2ccc(Cl)cc2)C2=C1COC2=O)Nc1cccc(C(F)(F)F)c1` (stereo unspecified), which Potency is on record?
Answer: The Potency was inconclusive: 11.2 µM [inhibitor, partial curve, poor fit].

Question: With `COc1ccccc1Nc1ccnc(N2CCCC(C(=O)NCCc3ccccc3)C2)n1` (stereo unspecified) as the compound, how does the Potency read?
Answer: Its Potency is “inactive”.

Question: With `Cc1cccc(-c2nc3ccc(C(=O)NCC(F)(F)F)cc3o2)n1` as the compound, how does the Potency read?
Answer: Its Potency is inconclusive: 39.8 µM [inhibitor, single point].

Question: With `Cc1ccc(CNC(=O)c2ccc3c(c2)CN(Cc2cc(F)c(F)c(F)c2)CCO3)cc1` as the compound, how does the Potency read?
Answer: Its Potency is inconclusive: 5.01 µM [inhibitor, partial curve, poor fit].

Question: For `CCN(CC)c1ccc(-c2nc(-c3ccccc3C)no2)cc1[N+](=O)[O-]`, which Potency is on record?
Answer: Its Potency is inconclusive: 39.8 µM [inhibitor, single point].

Question: For `O=C(NCCc1ccccc1Cl)c1ccc2c(c1)nc1n2CCCCC1`, which Potency is on record?
Answer: The Potency was “inactive”.

Question: For `O=C(c1ccoc1)N1CCC(OCCOc2ccccc2)CC1`, which Potency is on record?
Answer: Its Potency is inconclusive: 8.91 µM [inhibitor, partial curve, poor fit].

Question: Which Potency does the source give for `CN(C)C[C@@H]1CN(Cc2ccccc2)C[C@H]1NC(=O)c1nn(C)c2ccccc12` here?
Answer: Its Potency is “inactive”.

Question: For `Cc1ccc(NC(=O)CCc2c(C)nc3cc(-c4ccccc4)nn3c2C)cc1F`, which Potency is on record?
Answer: Its Potency is inconclusive: 1.41 µM [inhibitor, partial curve, poor fit].

Question: Which Potency does the source give for `O=C(CC1CCOCC1)NCc1cc(F)ccc1F` here?
Answer: The Potency was inconclusive: 3.55 µM [inhibitor, full curve, poor fit].

Question: For `COCCC(=O)N1C[C@H]2OC(=O)N(CCc3ccc(OC)cc3)[C@H]2C1`, which Potency is on record?
Answer: Its Potency is inconclusive: 2.51 µM [inhibitor, partial curve, poor fit].

Question: With `Cc1cc(C)c(CNC(=O)c2cc(-c3ccc(F)cc3)cc3ncn(C)c23)c(=O)[nH]1` as the compound, how does the Potency read?
Answer: The Potency was “inactive”.

Question: For `NC(=O)[C@H](Cc1cccs1)NC(=O)[C@@H]1C[C@@H](NS(=O)(=O)c2cccs2)CCN1C(=O)COCC(=O)O`, which Potency is on record?
Answer: Its Potency is inconclusive: 11.2 µM [inhibitor, partial curve, poor fit].

Question: For `Cc1oc2ccn(Cc3ccc(F)cc3)c(=O)c2c1C(=O)N1CCN(c2ccccn2)CC1`, which Potency is on record?
Answer: The Potency was “inactive”.

Question: With `CCN(CC)CCCNC(=O)c1nn(C)c2c1CS(=O)(=O)c1ccccc1-2` as the compound, how does the Potency read?
Answer: Its Potency is inconclusive: 39.8 µM [inhibitor, single point].

Question: With `CCCNC(=O)CCC1CCN(c2cc(NCCC)ncn2)CC1` as the compound, how does the Potency read?
Answer: Its Potency is active: 3.16 µM.

Question: With `Cc1ccc(C)c(S(=O)(=O)c2nnn3c2nc(NCCCOC(C)C)c2ccccc23)c1` as the compound, how does the Potency read?
Answer: The Potency was “inactive”.

Question: Which Potency does the source give for `CC(c1ccc(F)cc1)N1Cc2cc(NC(=O)Cc3cccs3)ccc2OCC1=O` (stereo unspecified) here?
Answer: The Potency was “inactive”.

Question: Which Potency does the source give for `O=C(Nc1cc(Cl)cc(Cl)c1)c1ccn2nccc2c1` here?
Answer: Its Potency is “inactive”.

Question: Which Potency does the source give for `O=C(NCCCN1CCN(c2ccc(F)cc2)CC1)c1ccc2nc(Cc3ccccc3)oc2c1` here?
Answer: Its Potency is inconclusive: 31.6 µM [inhibitor, single point].

Question: For `COCCOCc1nc(C2CCCCN2C(=O)Nc2ccc(OC)c(F)c2)no1` (stereo unspecified), which Potency is on record?
Answer: The Potency was “inactive”.

Question: For `COc1ccc([C@H]2CN(C(=O)c3nc(N)nc4c3CCCC4)C[C@@H]2N)cc1`, which Potency is on record?
Answer: Its Potency is inconclusive: 11.2 µM [inhibitor, partial curve, poor fit].

Question: Which Potency does the source give for `CC(C)c1ccc(NC(=O)N[C@H]2CO[C@H]3[C@@H]2OC[C@H]3OCc2ccccc2)cc1` here?
Answer: The Potency was inconclusive: 12.6 µM [inhibitor, single point].

Question: For `COc1ccc(NC(=O)c2cccc3c2CCN3C(=O)Nc2ccc(F)cc2)cc1`, which Potency is on record?
Answer: The Potency was “inactive”.

Question: For `CNc1nccc(N2CCC(CC(=O)NCCC(C)C)CC2)n1`, which Potency is on record?
Answer: The Potency was inconclusive: 0.794 µM [inhibitor, full curve].

Question: For `CCOC(=O)c1cccc(NC(=O)CCn2c(-c3ccc(F)cc3)cc(C(=O)OCC)c2C)c1`, which Potency is on record?
Answer: Its Potency is inconclusive: 39.8 µM [inhibitor, single point].

Question: With `COC(=O)N1CCN(C(=O)c2cccc(-c3ccccc3OC)c2)CC1` as the compound, how does the Potency read?
Answer: Its Potency is “inactive”.

Question: For `CC(C)c1noc(-c2cn(C3CCN(C(=O)c4ccc(OC(F)(F)F)cc4)C3)nn2)n1` (stereo unspecified), which Potency is on record?
Answer: The Potency was inconclusive: 22.4 µM [inhibitor, single point].

Question: For `CC1=C[C@@H](CNCc2ccncc2)[C@H](C(C)C)C[C@H]1Cc1nnc(-c2ccccc2F)o1`, which Potency is on record?
Answer: The Potency was inconclusive: 10 µM [inhibitor, partial curve, poor fit].

Question: With `COc1ccc(NC(=O)CSC2=Nc3ccccc3C3=NC(CCC(=O)NC4CCCCC4)C(=O)N23)cc1` (stereo unspecified) as the compound, how does the Potency read?
Answer: The Potency was inconclusive: 39.8 µM [inhibitor, single point].

Question: Which Potency does the source give for `Cc1ccc2c(C)c(C(=O)N3C[C@@H](CN4CCC(O)CC4)[C@@H](CO)C3)oc2c1` here?
Answer: The Potency was inconclusive: 28.2 µM [inhibitor, single point].

Question: With `COC[C@@H]1CN(C(=O)c2ccc3c(c2)OCO3)C[C@H]1c1ccccn1` as the compound, how does the Potency read?
Answer: The Potency was inconclusive: 39.8 µM [inhibitor, single point].

Question: With `Cc1cccc(NC(=O)N2CC(=O)Nc3sc4c(c3C2c2ccccc2)CCCC4)c1C` (stereo unspecified) as the compound, how does the Potency read?
Answer: The Potency was inconclusive: 8.91 µM [inhibitor, partial curve, poor fit].

Question: Which Potency does the source give for `Cc1ccccc1C1CC(=O)Nc2ccc3ccccc3c21` (stereo unspecified) here?
Answer: Its Potency is inconclusive: 28.2 µM [inhibitor, partial curve, poor fit].

Question: For `CCN1C(=O)c2ccccc2S(=O)c2ccc(C(=O)N3CCN(c4cc(Cl)ccc4C)CC3)cc21` (stereo unspecified), which Potency is on record?
Answer: The Potency was inconclusive: 10 µM [inhibitor, partial curve, poor fit].

Question: Which Potency does the source give for `CN(Cc1ccccc1)C(=O)c1ccc2c(c1)N(Cc1ccccc1Cl)C(=O)c1ccccc1S2` here?
Answer: Its Potency is inconclusive: 15.8 µM [inhibitor, single point].

Question: For `CC(C)(C)OC(=O)N1CC(Nc2cccc(C(F)(F)F)c2)C1`, which Potency is on record?
Answer: Its Potency is “inactive”.

Question: Which Potency does the source give for `Cc1cc(Nc2cc(N3CCN(C)CC3)nc(C=Cc3ccccc3)n2)n[nH]1` here?
Answer: Its Potency is “inactive”.

Question: Which Potency does the source give for `O=C(C1CCOCC1)N1CC2CC(C1)[C@H]1CCCC(=O)N1C2` (stereo partly specified) here?
Answer: Its Potency is “inactive”.

Question: Which Potency does the source give for `O=C(c1nc2cccnc2n(C2CC2)c1=O)N1CCN(C(=O)C2CC2)CC1` here?
Answer: Its Potency is “inactive”.

Question: For `CCc1ccccc1NC(=O)c1cnc(N2CCCCC2)c2ccccc12`, which Potency is on record?
Answer: The Potency was inconclusive: 39.8 µM [inhibitor, single point].

Question: With `O=C(NCCc1noc(C2CC2)n1)c1cccs1` as the compound, how does the Potency read?
Answer: The Potency was “inactive”.

Question: With `O=C1CCN(C(=O)c2ccoc2)CCCCCCN1` as the compound, how does the Potency read?
Answer: Its Potency is inconclusive: 0.631 µM [inhibitor, single point].

Question: With `Cc1ccc(Cl)cc1N1CCN(C(=O)c2ccc(CS(=O)(=O)c3ccccc3C)o2)CC1` as the compound, how does the Potency read?
Answer: Its Potency is inconclusive: 39.8 µM [inhibitor, single point].

Question: With `COc1cc(C2CC(=O)Oc3c2c(=O)n(C)c2ccccc32)ccc1O` (stereo unspecified) as the compound, how does the Potency read?
Answer: The Potency was inconclusive: 7.94 µM [inhibitor, single point].

Question: Which Potency does the source give for `COc1cncc(Nc2ncc(-c3ccccc3OC)c3c2OCC3)c1` here?
Answer: Its Potency is “inactive”.

Question: With `COCCCNC(=O)c1nc2cccnc2n(CCc2ccccc2)c1=O` as the compound, how does the Potency read?
Answer: Its Potency is “inactive”.

Question: For `Cc1cccc(-c2nnc(C3CCN(S(=O)(=O)c4cccc(Cl)c4)CC3)o2)c1`, which Potency is on record?
Answer: The Potency was inconclusive: 39.8 µM [inhibitor, single point].

Question: Which Potency does the source give for `Cc1ccc(C2Cn3nnc(C(=O)N4CCN(C(=O)Cc5cccc(F)c5)CC4)c3CO2)cc1` (stereo unspecified) here?
Answer: Its Potency is inconclusive: 15.8 µM [inhibitor, partial curve, poor fit].

Question: With `CC(C)CNC(=O)c1ccc(-c2nnc3ccc(NC(=O)C4CC4)cn23)cc1` as the compound, how does the Potency read?
Answer: Its Potency is inconclusive: 6.31 µM [inhibitor, single point].

Question: For `Cc1cccc(NC(=O)Cn2ccn3nc(-c4ccccc4)c(CO)c3c2=O)c1`, which Potency is on record?
Answer: Its Potency is “inactive”.

Question: With `CCCc1ccc(S(=O)(=O)NC2CCN(c3ccc(=O)n(CC4CC4)n3)CC2)cc1` as the compound, how does the Potency read?
Answer: The Potency was inconclusive: 44.7 µM [inhibitor, single point].
